Test results: PubChem BioAssay (Tox21)
“And” between values parts separate entries of the source, which are not always exact repeats. Identical values can stand only once. The shares of active, inactive and inconclusive entries below differ from those in the screen. Potencies beside an inconclusive call are fits to weak or partial responses and may not hold up. The source made the active and inactive calls. The call rests on the fitted dose curve; in most records, active means well fitted inhibition curve with a large enough effect in the repeat runs; inconclusive means weak or mixed curves; inactive means no such curve, though single readings can be large or run the other way.
Potency means the concentration at half of the fitted maximal effect; tags describe the fitted curve by direction and shape.

These compounds were tested against Cytochrome P450 2C19 (Homo sapiens) (UniProt P33261) (assay: Cytochrome P450 Family 2 Subfamily C Member 19 (CYP2C19) small molecule antagonists: luciferase reporter qHTS assay (AID 1671197; further: nearly all actives have a fitted effect of over 65% in size)). Conditions: P450-Glo CYP2C19 enzyme, luciferin luminescence, 1 h; series mostly up to 115 µM.
Sequence of UniProt P33261 (P33261 whole entry, looked up): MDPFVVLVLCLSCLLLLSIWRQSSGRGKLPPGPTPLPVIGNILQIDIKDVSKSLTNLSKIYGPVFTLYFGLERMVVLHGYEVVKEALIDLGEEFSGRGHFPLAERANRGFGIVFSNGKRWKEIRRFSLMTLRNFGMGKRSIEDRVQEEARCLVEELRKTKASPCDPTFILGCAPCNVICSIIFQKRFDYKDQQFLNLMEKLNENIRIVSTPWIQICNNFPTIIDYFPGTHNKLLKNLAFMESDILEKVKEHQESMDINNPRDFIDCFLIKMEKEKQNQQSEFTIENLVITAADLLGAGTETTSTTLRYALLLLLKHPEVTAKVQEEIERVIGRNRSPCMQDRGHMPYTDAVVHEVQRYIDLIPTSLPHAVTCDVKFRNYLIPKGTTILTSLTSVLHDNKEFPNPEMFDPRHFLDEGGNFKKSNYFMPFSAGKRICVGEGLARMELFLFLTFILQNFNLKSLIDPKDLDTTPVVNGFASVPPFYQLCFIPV
How it was run: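 CYP2C19 P450-Glo, 1536-well qHTS. Cpd + enzyme/proluciferin substrate 10 min RT; + NADPH regen, 37C 1 h; stop with luciferin detection reagent, 20 min RT, luminescence (RLU). Pos ctrl ketoconazole.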
With `CCCCOC(=O)CCC(=O)OCCCC` the Potency was inconclusive: 89.4 µM [inhibitor, single point].
With `C/C(=C\c1ccccc1)[N+](=O)[O-]` the Potency was inconclusive: 89.4 µM [inhibitor, single point].
With `CC(C)N(C(=O)CCl)c1ccccc1` the Potency was inconclusive: 71 µM [inhibitor, single point].
In the case of `CCOC(=O)C(Cl)C(C)=O` (configuration not stated), the Potency is reported as inconclusive: 90.5 µM [inhibitor, single point].
In the case of `CN(C)[C@@H]1C(=O)C(C(N)=O)=C(O)[C@@]2(O)C(=O)C3=C(O)c4c(O)cccc4[C@@](C)(O)[C@H]3[C@H](O)[C@@H]12`, the Potency is reported as inconclusive: 87.2 µM [inhibitor, single point] and inconclusive: 88.6 µM [inhibitor, single point].
With `COc1cccc2c1C(=O)c1c(O)c3c(c(O)c1C2=O)C[C@@](O)(C(=O)CO)CC3OC1CC(N2CCOC(OC)C2)C(O)C(C)O1` (some centres not stated) the Potency was inconclusive: 17.4 µM [inhibitor, full curve, poor fit].
`Cc1ccc(N)cc1Cl` was tested, and the Potency was active: 7.18 µM and active: 11.2 µM.
